Reference: the RNAGym collection of RNA variant scans (doi:10.1073/pnas.2313332121)
Variants at the floor of the assay are shown more often than the library holds them.

B1: TPR 5TU (parent)
chain: GGAUCUUCUCGAUCUAACAAAAAAGACAAAUCUGCCACAAAGCUUGAGAGCAUCUUCGGAUGCAGAGGCGGCAGCCUUCGGUGGCGCGAUAGCGCCAACGUUCUCAACUAUGACACGCAAAACGCGUGCUCCGUUGAAUGGAGUUUAUCAUG

Variants of: B1
Test: polymerase ribozyme fitness, log enrichment relative to wild type (log ratio); higher = more active; in vitro selection for triplet polymerase activity
Outline: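 One round of in vitro selection, in triplicate, was applied to PCR-built, transcribed mutant libraries of each subunit of a heterodimeric triplet polymerase ribozyme. The steps were annealing with a biotinylated primer, partner subunit and triplets, incubation frozen at −7 °C, gel excision of extended constructs, streptavidin-bead capture and RT-PCR. Fitness is the logarithm, base 2, of genotype enrichment over wild-type enrichment from inverse-variance-weighted replicate averages of Illumina-sequenced inputs and outputs, keeping genotypes with ≥10 input reads and ≥1 read per output.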

Variant | polymerase ribozyme fitness (log ratio)
A24U G58A A64C C85A G94C C95G A106C A115U C118U | ≤ -4.2
G25C A60G G83C C96U G141U | -2.48
A24U A66U G68C G92A C131G | ≤ -4.2
G25A G42U C95U U102G U134A | ≤ -4.2
A23U U77G G92U | ≤ -4.2
A23G C38U U55C C69U A98U C116U A120U G141U A147C | ≤ -4.2
G25C C72U A91G A119U U127A | ≤ -4.2
G25A A30U U56A U135A U144G | ≤ -4.2
A23U U44A U45A A66U C95U A120G | ≤ -4.2
A24U G59A G92A G140U | ≤ -4.2
G25C G88U G124A G128U U135C | ≤ -4.2
A24U C43A A60C C96A A119U G126A | ≤ -4.2
A24C U31G G81C G83U G94A | ≤ -4.2
G25A U61A | -3.19
A24U C54G C75G C76U A89C C149G | ≤ -4.2
A24C A37G C51A C54A G94U C132U U148C | ≤ -4.2
A23G C76A | -2.49
A24C A28U A37U U134C | ≤ -4.2
A24U C27G G50C C54G A64C G84A G86C C118G C149U | ≤ -4.2
A24C U45G G80C C96G U109C C114G G140U | ≤ -4.2
A24G G84A C114G G133U | ≤ -4.2

Variant | polymerase ribozyme fitness (log ratio)
A24U U56C G62A A64G G68C G83A G124U U146A | ≤ -4.2
G25C C32U U55A U56A G140U | ≤ -4.2
A24U C87A | ≤ -4.2
A23G C36A C105A A107G U145A | ≤ -4.2
G25A C57U C76A A89G C93U | ≤ -4.2
A24U C76U G88A G128C A142C | ≤ -4.2
A23U U56A G88U A91G G126A | ≤ -4.2
A23G U56A A66C G81A C95U | ≤ -4.2
A23G C35U C57G G65A | ≤ -4.2
A24U A30U G59A U101C U102G A121U G126C A142C | ≤ -4.2
A23U U56G G58C G74C G88U | ≤ -4.2
A23U G34U A66U G84A C103G A120U C123G | ≤ -4.2
A24U G80C G86U C125G A137C | ≤ -4.2
G25C U33A A91G U134C G136U | ≤ -4.2
A23U C38U | -4.06
A23U A24U C32G A89G A115G | ≤ -4.2
A24G U56C C93U A97U C103U C114U C131G A137G | ≤ -4.2
A23U C96U | -4.1
A24U C76G A138G | ≤ -4.2
A23U G81U G86U U127G G141U U145A | ≤ -4.2
G25A A52G C87A C93U A98U A106C | ≤ -4.2

Variant | polymerase ribozyme fitness (log ratio)
A24U U56A C57A G58A A60C A66U C96U C105U G117U A142C | ≤ -4.2
A23U C93U A97G A113C G136U U148G | ≤ -4.2
G25A A64G G88A | ≤ -4.2
A24C U55A A73U G84U U102A A110U A119C | ≤ -4.2
G25A C32A A40C C123A G124A A138C | ≤ -4.2
A24G C35U A39G U55A G83U G86A | ≤ -4.2
A23G C96A C103A G117C | ≤ -4.2
A24C A39C A47G U101G C131G U135C G141A | ≤ -4.2
A24G G83C G88U C116A C132A | ≤ -4.2
A23U C72G G83U | ≤ -4.2
A24C U56A G68A G141A | ≤ -4.2
A23U C35A A41C U55G G86C C95G C105A | ≤ -4.2
A24U A49G G59U C95U C99A C105U G133A | ≤ -4.2
A24U C43U G58A A60C | ≤ -4.2
A24G C27A A91U U102A C125A A137C U139C | ≤ -4.2
A24U G62C A89G G136U | ≤ -4.2
A24U C75A A91U | ≤ -4.2
A23G C57U G58A C87A A110C A113U A122U A137U | ≤ -4.2
A23U A24C A52G C87A C99U | ≤ -4.2
A23U C36U G59A U146G | ≤ -4.2
A24C U61A C63G G81A G94A | ≤ -4.2

Variant | polymerase ribozyme fitness (log ratio)
A24C A30U A52G G58A G68A U82G C93U A98U G100C C125A G126U | ≤ -4.2
A24U G140A | -4.12
A23G U61G C93G G126A | ≤ -4.2
A23U C75G C93U C96U U135C | ≤ -4.2
A24U C93U A119C | -1.98
A24C A37C C38U G59A C95A A107C C116U | ≤ -4.2
A24U A26G A64C G84U A97U A122C | ≤ -4.2
A24U C36A A49U C116G A120U A138U | ≤ -4.2
A24G G86A C99G | ≤ -4.2
A24U A29C U55A G58U C93A A120U A122G G136A C149A | ≤ -4.2
A24G A39U | ≤ -4.2
A24C A37G G48C C63U U78G G88C U144G | ≤ -4.2
A24G G25U A73G G94A C105G A121C G143U A147G | ≤ -4.2
A24U A30U A39C A40U C63G A64G C87A C108A C131A | ≤ -4.2
A23U G50A A52U G80C G92U C95U A98G C103G | ≤ -4.2
A23U C43G G48A G92A A98G A147U G152C | -3.84
A24G U53A C95U | ≤ -4.2
A24U C38A G46A G68U C95U A138C | ≤ -4.2
A23U C76G | ≤ -4.2
A23G U56A C63A C85U C93U | ≤ -4.2
